Reference: the supplement of paper PMC10369915
Some of the results follow. No stated cut-off is given here; in the data, active = 3.2 or more and inactive = the rest. Most of these values are background signal.

How the values were obtained:
Assay in all cases: enrichment score (SH2-bound / input frequency) (ratio); bacterial display of known human phosphotyrosine sites (pTyr-Var adds point mutants) read by sequencing; higher = stronger binding; tyrosines were phosphorylated by kinases first
Conditions in all cases: peptide library: Human pTyr
SHP2 C-SH2 domain E139D = target: SHP2 C-SH2 domain E139D
[1] = target: SHP2 C-SH2 domain wild-type
SHP2 N-SH2 domain L43F = target: SHP2 N-SH2 domain L43F
SHP2 N-SH2 domain T42A = target: SHP2 N-SH2 domain T42A
SHP2 N-SH2 domain T52S = target: SHP2 N-SH2 domain T52S
[2] = target: SHP2 N-SH2 domain wild-type
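Further: displayed peptides selected on beads carrying the immobilized SH2 domain, with library peptides lacking any tyrosine serving as negative controls.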

Row | Binder | enrichment score (SHP2 C-SH2 domain E139D) | enrichment score [1] | enrichment score (SHP2 N-SH2 domain L43F) | enrichment score (SHP2 N-SH2 domain T42A) | enrichment score (SHP2 N-SH2 domain T52S) | enrichment score [2]
1 | VIEDTMVYGHLLQDS [CDCP1_HUMAN_743] | inactive: 0.641 | inactive: 0.542 | inactive: 0.609 | inactive: 0.577 | inactive: 0.638 | inactive: 0.626
2 | SLEKHSWYHGPVSRS [ABL2_HUMAN_174] | inactive: 0.98 | inactive: 1.64 | inactive: 1.07 | inactive: 0.793 | inactive: 0.941 | inactive: 1.4
3 | GEMDTTSYDVSVLNS [CDH5_HUMAN_658] | inactive: 0.648 | inactive: 0.513 | inactive: 0.74 | inactive: 0.502 | inactive: 0.653 | inactive: 0.635
4 | EKIGEGTYGVVYKGR [CDK1_HUMAN_15] | inactive: 0.892 | inactive: 0.826 | inactive: 0.754 | inactive: 0.717 | inactive: 0.698 | inactive: 0.757
5 | EGTAGVVYKGRHKTT [CDK1_HUMAN_19_YA] | inactive: 0.633 | inactive: 0.711 | inactive: 0.686 | inactive: 0.638 | inactive: 0.813 | inactive: 0.734
6 | VIKPLVEYDDISSDS [CDK12_HUMAN_73] | inactive: 1.1 | inactive: 1.08 | inactive: 0.793 | inactive: 0.933 | inactive: 0.763 | inactive: 0.899
7 | EKIGEGTYGVVYKAR [CDK2_HUMAN_15] | inactive: 0.929 | inactive: 0.723 | inactive: 0.701 | inactive: 0.72 | inactive: 0.708 | inactive: 0.773
8 | EKIGEGTYGVVAKAR [CDK2_HUMAN_15_YA] | inactive: 0.687 | inactive: 0.606 | inactive: 0.651 | inactive: 0.817 | inactive: 0.747 | inactive: 0.757
9 | EGTAGVVYKARNKLT [CDK2_HUMAN_19_YA] | inactive: 0.662 | inactive: 0.697 | inactive: 0.593 | inactive: 0.623 | inactive: 0.643 | inactive: 0.539
10 | AEIGVGAYGTVYKAR [CDK4_HUMAN_17] | inactive: 1.09 | inactive: 1.2 | inactive: 1.12 | inactive: 0.837 | inactive: 1.1 | inactive: 0.813
11 | AEIGVGAYGTVAKAR [CDK4_HUMAN_17_YA] | inactive: 0.731 | inactive: 0.755 | inactive: 0.94 | inactive: 0.817 | inactive: 0.741 | inactive: 0.771
12 | NNANATEYVATRWAR [CDKL5_HUMAN_171_YA] | inactive: 0.946 | inactive: 1.07 | inactive: 0.862 | inactive: 0.917 | inactive: 1.02 | inactive: 0.98
13 | KGSLPEFYYRPPRPP [CDN1B_HUMAN_88] | inactive: 0.478 | inactive: 0.578 | inactive: 0.852 | inactive: 0.666 | inactive: 0.546 | inactive: 0.611
14 | KGSLPEFYARPPRPP [CDN1B_HUMAN_88_YA] | inactive: 0.512 | inactive: 0.652 | inactive: 0.542 | inactive: 0.422 | inactive: 0.806 | inactive: 0.835
15 | TTADGKVYVTAESRF [ABL2_HUMAN_231] | inactive: 0.896 | inactive: 0.664 | inactive: 0.832 | inactive: 0.686 | inactive: 0.674 | inactive: 0.913
16 | GSLPEFYYRPPRPPK [CDN1B_HUMAN_89] | inactive: 0.496 | inactive: 0.735 | inactive: 0.34 | inactive: 0.639 | inactive: 0.452 | inactive: 0.725
17 | KLQLDNQYAVLENQK [CDV3_HUMAN_244] | inactive: 1.54 | active: 3.63 | inactive: 0.955 | inactive: 1.81 | inactive: 0.972 | inactive: 0.887
18 | IKSDVPVYLKRLKGN [CE170_HUMAN_364] | inactive: 0.902 | inactive: 0.797 | inactive: 0.661 | inactive: 0.705 | inactive: 0.881 | inactive: 0.774
